# This is one part of the list.
# B1: AT1G15820(NC) (Arabidopsis thaliana) (protein)
# chain: MAMAVSGAVLSGLGSSFLTGGKRGATALASGVGDAIAPFSFGSLLGTQLLLMGWVESKRWVDFFNPDSQSVEWATPWSKTAENFANYTGDQGYPGGRFFDPLGLAGKNRDGVYEPDFEKLERLKLAEIKHSRLAMVAMLIFYFEAGQGKTPLGALGL
# Tests used:
# Assay in all cases: glycan array binding signal (z-score within array); higher = stronger binding
# Conditions in all cases: glycan notation: IUPAC condensed, linker removed
# [1] = target: Neu5Ac(a2-6)Gal(b1-4)GlcNAc(b1-2)Man(a1-3)[Man(a1-6)]Man(b1-4)GlcNAc(b1-4)GlcNAc
# Outline: (§1)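 From the Consortium for Functional Glycomics database, 3228 arrays were curated, keeping only those whose protein sequence was available. Binding is given as a within-array Z-score averaged across arrays sharing a protein sequence and across linkers. Negative Z-scores can be read as non-binding.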
# [2] = target: Neu5Ac(a2-6)Gal(b1-4)GlcNAc(b1-2)Man(a1-3)[Neu5Ac(a2-3)Gal(b1-4)GlcNAc(b1-2)Man(a1-6)]Man(b1-4)GlcNAc(b1-4)GlcNAc
# Outline: as §1
# [3] = target: Neu5Ac(a2-6)Gal(b1-4)GlcNAc(b1-2)Man(a1-3)[Neu5Ac(a2-6)Gal(b1-4)GlcNAc(b1-2)Man(a1-6)]Man(b1-4)GlcNAc(b1-4)GlcNAc
# Outline: as §1
# [4] = target: Neu5Ac(a2-6)Gal(b1-4)GlcNAc(b1-2)Man(a1-3)[Neu5Ac(a2-6)Gal(b1-4)GlcNAc(b1-2)Man(a1-6)]Man(b1-4)GlcNAc(b1-4)[Fuc(a1-6)]GlcNAc
# Outline: as §1
# [5] = target: Neu5Ac(a2-6)Gal(b1-4)GlcNAc(b1-2)Man(a1-6)Man(b1-4)GlcNAc(b1-4)GlcNAc
# Outline: as §1
# [6] = target: Neu5Ac(a2-6)Gal(b1-4)GlcNAc(b1-2)Man(a1-6)[Gal(b1-4)GlcNAc(b1-2)Man(a1-3)]Man(b1-4)GlcNAc(b1-4)GlcNAc
# Outline: as §1
# [7] = target: Neu5Ac(a2-6)Gal(b1-4)GlcNAc(b1-2)Man(a1-6)[GlcNAc(b1-2)Man(a1-3)]Man(b1-4)GlcNAc(b1-4)GlcNAc
# Outline: as §1
# [8] = target: Neu5Ac(a2-6)Gal(b1-4)GlcNAc(b1-2)Man(a1-6)[Man(a1-3)]Man(b1-4)GlcNAc(b1-4)GlcNAc
# Outline: as §1
# [9] = target: Neu5Ac(a2-6)Gal(b1-4)GlcNAc(b1-2)[Neu5Ac(a2-6)Gal(b1-4)GlcNAc(b1-4)]Man(a1-3)[GlcNAc(b1-4)][Neu5Ac(a2-6)Gal(b1-4)GlcNAc(b1-2)[Neu5Ac(a2-6)Gal(b1-4)GlcNAc(b1-6)]Man(a1-6)]Man(b1-4)GlcNAc(b1-4)GlcNAc
# Outline: as §1
# [10] = target: Neu5Ac(a2-6)Gal(b1-4)GlcNAc(b1-2)[Neu5Ac(a2-6)Gal(b1-4)GlcNAc(b1-4)]Man(a1-3)[GlcNAc(b1-4)][Neu5Ac(a2-6)Gal(b1-4)GlcNAc(b1-4)Man(a1-6)]Man(b1-4)GlcNAc(b1-4)GlcNAc
# Outline: as §1
# [11] = target: Neu5Ac(a2-6)Gal(b1-4)GlcNAc(b1-2)[Neu5Ac(a2-6)Gal(b1-4)GlcNAc(b1-6)]Man(a1-6)[Neu5Ac(a2-6)Gal(b1-4)GlcNAc(b1-2)Man(a1-3)][GlcNAc(b1-4)]Man(b1-4)GlcNAc(b1-4)GlcNAc
# Outline: as §1
# [12] = target: Neu5Ac(a2-6)Gal(b1-4)GlcNAc(b1-3)Gal(b1-3)GlcNAc
# Outline: as §1
# [13] = target: Neu5Ac(a2-6)Gal(b1-4)GlcNAc(b1-3)Gal(b1-4)GlcNAc
# Outline: as §1
# [14] = target: Neu5Ac(a2-6)Gal(b1-4)GlcNAc(b1-3)Gal(b1-4)GlcNAc(b1-2)Man(a1-3)[Neu5Ac(a2-6)Gal(b1-4)GlcNAc(b1-3)Gal(b1-4)GlcNAc(b1-2)Man(a1-6)]GalNAc
# Outline: as §1
# [15] = target: Neu5Ac(a2-6)Gal(b1-4)GlcNAc(b1-3)Gal(b1-4)GlcNAc(b1-3)Gal(b1-4)GlcNAc
# Outline: as §1
# [16] = target: Neu5Ac(a2-6)Gal(b1-4)GlcNAc(b1-3)Gal(b1-4)GlcNAc(b1-3)Gal(b1-4)GlcNAc(b1-2)Man(a1-3)[Neu5Ac(a2-6)Gal(b1-4)GlcNAc(b1-3)Gal(b1-4)GlcNAc(b1-3)Gal(b1-4)GlcNAc(b1-2)Man(a1-6)]GalNAc
# Outline: as §1
# [17] = target: Neu5Ac(a2-6)Gal(b1-4)GlcNAc(b1-3)Gal(b1-4)GlcNAc(b1-3)GalNAc
# Outline: as §1
# [18] = target: Neu5Ac(a2-6)Gal(b1-4)GlcNAc(b1-3)Gal(b1-4)GlcNAc(b1-3)[Neu5Ac(a2-6)Gal(b1-4)GlcNAc(b1-3)Gal(b1-4)GlcNAc(b1-6)]GalNAc
# Outline: as §1
# [19] = target: Neu5Ac(a2-6)Gal(b1-4)GlcNAc(b1-3)Gal(b1-4)GlcNAc(b1-6)[Gal(b1-3)]GalNAc
# Outline: as §1
# [20] = target: Neu5Ac(a2-6)Gal(b1-4)GlcNAc(b1-3)Gal(b1-4)[Fuc(a1-3)]GlcNAc(b1-3)Gal(b1-4)[Fuc(a1-3)]GlcNAc
# Outline: as §1
# [21] = target: Neu5Ac(a2-6)Gal(b1-4)GlcNAc(b1-3)GalNAc
# Outline: as §1
# [22] = target: Neu5Ac(a2-6)Gal(b1-4)GlcNAc(b1-3)[Neu5Ac(a2-6)Gal(b1-4)GlcNAc(b1-6)]GalNAc
# Outline: as §1
# [23] = target: Neu5Ac(a2-6)Gal(b1-4)GlcNAc(b1-6)GalNAc
# Outline: as §1
# [24] = target: Neu5Ac(a2-6)Gal(b1-4)GlcNAc(b1-6)[Gal(b1-3)GlcNAc(b1-3)]Gal(b1-4)Glc
# Outline: as §1
# [25] = target: Neu5Ac(a2-6)Gal(b1-4)GlcNAc(b1-6)[Gal(b1-3)]GalNAc
# Outline: as §1
# [26] = target: Neu5Ac(a2-6)Gal(b1-4)GlcNAc6S
# Outline: as §1
# Neu5Ac(a2-6)GalNAc = target: Neu5Ac(a2-6)GalNAc
# Outline: as §1
# [27] = target: Neu5Ac(a2-6)GalNAc(b1-4)GlcNAc
# Outline: as §1
# [28] = target: Neu5Ac(a2-6)GalNAc(b1-4)GlcNAc6S
# Outline: as §1
# [29] = target: Neu5Ac(a2-6)GlcNAc(b1-4)GlcNAc
# Outline: as §1
# [30] = target: Neu5Ac(a2-6)GlcNAc(b1-4)GlcNAc(b1-4)GlcNAc
# Outline: as §1
binder,measurement,setting,value
B1,glycan array binding signal (z-score),[1],-0.25
same,glycan array binding signal (z-score),[2],-0.265
same,glycan array binding signal (z-score),[3],0.112
same,glycan array binding signal (z-score),[4],0.316
same,glycan array binding signal (z-score),[5],-0.154
same,glycan array binding signal (z-score),[6],-0.043
same,glycan array binding signal (z-score),[7],-0.485
same,glycan array binding signal (z-score),[8],-0.633
same,glycan array binding signal (z-score),[9],-0.4
same,glycan array binding signal (z-score),[10],-0.69
same,glycan array binding signal (z-score),[11],0.1
same,glycan array binding signal (z-score),[12],0.514
same,glycan array binding signal (z-score),[13],-0.414
same,glycan array binding signal (z-score),[14],-0.569
same,glycan array binding signal (z-score),[15],-0.813
same,glycan array binding signal (z-score),[16],0.633
same,glycan array binding signal (z-score),[17],-0.217
same,glycan array binding signal (z-score),[18],-0.077
same,glycan array binding signal (z-score),[19],-0.069
same,glycan array binding signal (z-score),[20],-0.652
same,glycan array binding signal (z-score),[21],-0.606
same,glycan array binding signal (z-score),[22],-0.424
same,glycan array binding signal (z-score),[23],-0.559
same,glycan array binding signal (z-score),[24],-0.432
same,glycan array binding signal (z-score),[25],-0.525
same,glycan array binding signal (z-score),[26],-0.322
same,glycan array binding signal (z-score),Neu5Ac(a2-6)GalNAc,-0.294
same,glycan array binding signal (z-score),[27],-0.525
same,glycan array binding signal (z-score),[28],0.073
same,glycan array binding signal (z-score),[29],-0.516
same,glycan array binding signal (z-score),[30],-0.481

# — the supplement of paper PMC8728848
